Data taken from the supplement of paper PMC7826260.
Some of the results follow. Viral Rep nickase domains cut single-stranded DNA in vitro at 3 µM enzyme and 37 °C for 1 h; the strands have 90 letters, of which the middle is given. The score is log2 (uncut reads / reads without enzyme); the lower, the more was cut; hits are not called. Reads are scaled to the total; values above 0 arise when much of the pool is cut.

Tests used:
Experiment in all cases: uncleaved DNA left, log2 of reads against the no-enzyme library (log2 ratio); higher = less cleavage (more negative = more Rep cleavage of the k-mer); sequences stand for … in CTCGTCCG…ACCGGAGA
[1] = system: T1, Rep nickase domain of Muscovy duck circovirus
T1 sequence (Rep 1-111, printed without the tag): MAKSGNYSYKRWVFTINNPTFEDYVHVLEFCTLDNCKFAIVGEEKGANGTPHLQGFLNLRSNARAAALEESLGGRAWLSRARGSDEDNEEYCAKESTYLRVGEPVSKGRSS
Method: (§1)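 A pool of 90-nt single-stranded DNAs with seven random bases just before the constant AC of the nick site (name = the seven bases) was cut by 3 µM recombinant His6-SUMO-tagged Rep nickase domain (300 nM DNA, 50 mM HEPES pH 8.0, 50 mM NaCl, 1 mM MnCl2, 1 h, 37 °C, three replicates). Uncut DNA was amplified and sequenced.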

[2] = system: T2, Rep nickase domain of banana bunchy top virus
T2 sequence (Rep 1-94, printed without the tag): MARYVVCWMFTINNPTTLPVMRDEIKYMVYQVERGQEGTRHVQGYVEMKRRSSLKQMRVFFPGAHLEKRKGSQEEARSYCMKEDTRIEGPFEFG
Method: as §1

[3] = system: T3, Rep nickase domain of cabbage leaf curl virus
T3 sequence (Rep 1-116, printed without the tag): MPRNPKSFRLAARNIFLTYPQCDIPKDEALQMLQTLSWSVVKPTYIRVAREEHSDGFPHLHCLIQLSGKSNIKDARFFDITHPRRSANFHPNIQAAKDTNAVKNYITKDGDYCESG
Method: as §1

[4] = system: T4, Rep nickase domain of chickpea chlorotic dwarf virus
T4 sequence (Rep 1-124, printed without the tag): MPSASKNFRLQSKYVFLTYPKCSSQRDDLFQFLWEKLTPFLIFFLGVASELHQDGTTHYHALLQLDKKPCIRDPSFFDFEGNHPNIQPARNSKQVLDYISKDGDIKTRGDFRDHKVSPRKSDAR
Method: as §1

[5] = system: T5, Rep nickase domain of faba bean necrotic yellows virus
T5 sequence (Rep 1-98, printed without the tag): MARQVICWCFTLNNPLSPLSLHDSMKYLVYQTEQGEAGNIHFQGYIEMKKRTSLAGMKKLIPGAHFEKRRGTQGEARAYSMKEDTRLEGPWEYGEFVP
Method: as §1

[6] = system: T6, Rep nickase domain of maize striate mosaic virus
T6 sequence (Rep 1-117, printed without the tag): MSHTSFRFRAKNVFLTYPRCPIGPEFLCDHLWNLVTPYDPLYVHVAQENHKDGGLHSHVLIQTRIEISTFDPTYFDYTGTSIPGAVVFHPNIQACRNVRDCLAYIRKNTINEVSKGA
Method: as §1

[7] = system: T7, Rep nickase domain of porcine circovirus 2
T7 sequence (Rep 2-116, printed without the tag): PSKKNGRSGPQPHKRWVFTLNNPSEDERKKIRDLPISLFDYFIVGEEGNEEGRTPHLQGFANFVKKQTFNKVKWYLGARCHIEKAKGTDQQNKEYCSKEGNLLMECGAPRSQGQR
Method: as §1

[8] = system: T8, Rep nickase domain of tomato golden mosaic virus
T8 sequence (Rep 1-124, printed without the tag): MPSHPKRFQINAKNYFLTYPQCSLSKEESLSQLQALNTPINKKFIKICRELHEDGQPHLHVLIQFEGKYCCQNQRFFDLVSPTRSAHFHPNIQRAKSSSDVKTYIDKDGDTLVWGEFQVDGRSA
Method: as §1

[9] = system: T9, Rep nickase domain of tomato yellow leaf curl virus
T9 sequence (Rep 1-136, printed without the tag): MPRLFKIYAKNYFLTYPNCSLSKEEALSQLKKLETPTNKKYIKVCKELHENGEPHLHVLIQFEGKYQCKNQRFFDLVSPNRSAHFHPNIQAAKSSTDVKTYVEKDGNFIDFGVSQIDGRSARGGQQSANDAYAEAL
Method: as §1

[10] = system: T10, Rep nickase domain of wheat dwarf virus
T10 sequence (Rep 1-137, printed without the tag): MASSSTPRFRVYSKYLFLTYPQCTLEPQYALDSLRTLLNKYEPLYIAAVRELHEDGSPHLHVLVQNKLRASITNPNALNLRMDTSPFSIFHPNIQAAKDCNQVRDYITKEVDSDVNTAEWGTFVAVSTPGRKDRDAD
Method: as §1

Sequence	uncleaved DNA left (log2) [1]	uncleaved DNA left (log2) [2]	uncleaved DNA left (log2) [3]	uncleaved DNA left (log2) [4]	uncleaved DNA left (log2) [5]	uncleaved DNA left (log2) [6]	uncleaved DNA left (log2) [7]	uncleaved DNA left (log2) [8]	uncleaved DNA left (log2) [9]	uncleaved DNA left (log2) [10]
GAGGTTA	0.217	0.175	0.307	0.488	0.0172	1.7	-0.039	0.205	0.055	0.115
GACGCTC	-0.204	-0.169	0.142	0.0903	-0.139	0.206	-0.131	-0.202	-0.143	-0.152
ACGTACC	-0.0709	0.0393	-0.125	-0.233	-0.0515	-0.438	-0.219	-0.0426	-0.123	0.00295
TCGAGTT	0.145	0.0664	-0.0234	-1.21	-0.00729	0.165	-0.662	0.0867	0.00741	-0.0423
TAACCTA	-0.272	-0.0619	-1.47	-3.08	-0.0996	-0.935	-1.13	-0.264	-0.0599	-0.539
CGGCAGT	-0.19	-0.0701	0.0333	0.601	-0.166	0.695	-0.0157	-0.207	-0.135	-0.175
TACAATC	-0.0401	0.0208	-0.149	-0.522	0.0587	-0.362	0.0132	-0.0457	0.0873	0.0326
TTATCAT	-0.204	0.209	0.417	0.849	-0.0607	1.38	-0.0154	-0.09	0.15	0.169
GCCTACA	-0.0819	0.0476	-0.134	-1.27	0.0129	0.17	-0.0631	-0.165	-0.034	0.02
TCCTGAT	-0.243	-0.203	0.0372	-0.0139	-0.0811	0.665	-2.59	-0.114	-0.0836	-0.0849
GGTTCCT	-0.0221	0.128	0.441	0.747	0.271	1.82	-0.276	0.115	0.197	0.188
AGCTTTG	-0.0415	0.00283	-0.0523	0.604	-0.00172	0.961	0.107	-0.122	0.0137	0.0267
GATTAGG	0.0732	0.0815	0.345	1.23	0.0362	1.27	0.169	0.104	0.0291	0.0973
GACACCC	-0.0728	0.0595	0.221	0.263	-0.0498	0.651	-0.265	-0.0437	-0.038	0.0299
GGCAGTC	0.00697	0.0753	0.712	1.47	0.0627	1.97	0.101	0.125	0.0898	0.139
GGAGGTA	0.115	0.108	0.673	1.45	0.103	1.99	0.258	0.0939	0.14	0.123
GTGGATT	-0.0101	0.00817	0.665	1.51	0.0325	2.08	0.131	-0.0515	0.1	-0.0577
CTACCTC	0.0198	0.000999	0.0857	-0.314	0.0443	0.604	-0.177	0.0406	0.142	0.149
TTTGCAC	-0.109	-0.147	-0.534	-0.775	0.0321	-1.21	0.00463	-0.135	-0.104	-0.104
TTACCCC	-0.389	-0.0969	-0.0532	-2.15	0.0177	-0.324	-1.98	-0.24	-0.149	-0.0672

Sequence	uncleaved DNA left (log2) [1]	uncleaved DNA left (log2) [2]	uncleaved DNA left (log2) [3]	uncleaved DNA left (log2) [4]	uncleaved DNA left (log2) [5]	uncleaved DNA left (log2) [6]	uncleaved DNA left (log2) [7]	uncleaved DNA left (log2) [8]	uncleaved DNA left (log2) [9]	uncleaved DNA left (log2) [10]
GTCTAGC	0.0452	0.0294	0.21	0.707	0.105	1.29	0.127	0.0312	-0.0784	-0.0108
CACGAAG	0.127	-0.0669	-0.774	-0.299	0.108	-1.1	0.0845	0.0571	0.0332	-0.0549
TGTTGGA	-0.0883	-0.141	-0.048	-0.265	-0.2	-0.597	-0.0605	-0.123	-0.0101	-0.155
TGATAGA	0.145	0.0888	0.0957	-0.137	0.123	-0.756	0.203	-0.0258	0.0403	0.0609
GTAGAGA	0.0836	0.0932	0.654	1.26	0.162	1.49	0.209	0.123	0.138	0.13
CCAGGTT	-0.105	-0.179	0.17	0.665	-0.264	1.53	-0.0363	-0.0753	-0.181	-0.163
TAGTCCT	-2.42	-3.04	-1.71	-2.72	-2.38	0.267	-4.17	-0.27	0.0893	-0.208
GAGTGGA	-0.0669	0.00389	0.395	0.549	0.0222	0.556	-2.13	0.0989	0.0609	0.0328
TCTTAAA	-0.103	-0.0654	-0.00912	-0.229	-0.0302	-0.299	-0.0718	0.0643	-0.0741	-0.0807
CAGTACA	-0.145	-0.392	-0.217	-2.43	-0.629	-0.712	-2.5	-0.149	0.0844	-0.0499
TATTGCT	-3.65	-2.96	-1.49	-2.63	-0.163	-1.39	-3.6	-0.141	0.0353	-0.163
AAGCATT	0.173	-0.0136	0.0962	-1.7	0.0527	0.314	-2.98	0.0814	0.225	0.0627
CGGCTTT	-0.0542	-0.275	0.0454	-0.368	-0.253	0.663	-0.26	-0.344	-0.246	-0.0715
AGCCCCT	-0.0167	-0.133	0.186	0.345	-0.14	1.37	-0.174	-0.268	-0.0233	-0.0862
CCTGGTC	0.112	-0.00313	0.378	0.151	0.106	-0.189	0.112	0.0561	0.14	-0.0186
TCGAGGT	0.0901	0.0237	0.303	0.862	0.0024	1.28	-0.0308	-0.0117	-0.138	-0.171
TTTGGTT	-0.00552	-0.145	0.17	-0.776	-0.0487	0.458	-0.303	-0.0475	-0.0221	-0.03
ACCATGT	-0.0421	-0.0564	-0.462	-0.857	0.0231	-1.1	0.116	0.0597	0.00263	-0.158
ATGCATC	-0.132	-0.106	-0.112	-0.194	-0.149	-1.04	-0.219	-0.166	-0.071	-0.0525
GCTATTC	0.128	0.0743	0.139	0.518	0.128	-0.0533	0.185	0.0217	0.081	0.0431

Sequence	uncleaved DNA left (log2) [1]	uncleaved DNA left (log2) [2]	uncleaved DNA left (log2) [3]	uncleaved DNA left (log2) [4]	uncleaved DNA left (log2) [5]	uncleaved DNA left (log2) [6]	uncleaved DNA left (log2) [7]	uncleaved DNA left (log2) [8]	uncleaved DNA left (log2) [9]	uncleaved DNA left (log2) [10]
ATGTACG	0.12	-0.00712	-0.742	-0.0167	0.0545	-0.951	0.168	-0.0416	0.0861	-0.0486
ATTCTTG	-0.0469	-0.222	-0.6	-2.48	-0.17	-1.32	-0.098	-0.156	-0.161	-0.232
GGTGGTC	0.029	0.0261	0.569	1.22	-0.0737	1.91	0.1	-0.0439	-0.0329	0.0501
AGAACAC	0.0113	0.104	0.18	0.191	0.0585	0.289	0.105	-0.0697	0.0616	0.159
GTAAAAA	0.152	0.112	0.31	0.952	0.0796	1.58	0.189	0.254	0.11	0.148
CTAGCGG	0.0161	0.135	0.533	1.53	0.0123	1.78	0.29	0.11	-0.0392	0.111
CCATTCC	-0.11	-0.129	-0.25	-0.164	-0.195	-0.674	-0.00987	-0.13	-0.00826	0.0352
AGCCCCC	0.000891	-0.116	0.5	0.926	-0.0431	1.25	-0.126	-0.0235	-0.0531	0.104
GGAGCAT	0.222	0.272	1.02	2.19	0.183	2.44	0.347	0.208	0.164	0.315
TCTTGGT	-0.427	-0.31	-0.106	-0.317	-0.221	-0.474	-1.69	-0.232	-0.169	-0.238
TTTGGAG	0.145	0.0353	-0.64	-0.362	0.107	-1.15	0.179	0.0792	0.0248	-0.101
AATATCG	-0.0234	-0.0608	-0.963	-0.173	-0.0919	-1.23	0.0978	-0.0627	-0.101	-0.107
GGCAGTG	0.0178	0.0825	-0.143	0.283	-0.0332	0.319	0.144	0.0311	0.008	-0.0344
GCATACA	-0.0536	0.0271	-0.11	-1.09	0.0488	-0.0505	-0.128	-0.0104	-0.121	-0.0315
GATATCC	-0.0866	0.0602	0.245	0.646	-0.00926	0.707	0.0913	-0.0847	0.0912	0.0372
CTCTCAA	-0.112	-0.0291	-0.0524	-0.327	-0.24	-0.601	-0.0207	-0.09	-0.125	-0.188
CGAGGCC	0.157	0.135	0.209	0.428	-0.118	0.00226	0.0356	-0.00794	0.0555	-0.0444
TTGAGAT	-0.0174	-0.0514	0.083	0.895	-0.0764	0.792	0.168	-0.011	-0.0596	0.123
